Assay results as given in PubChem BioAssay AID624417 (National Center for Advancing Translational Sciences (NCATS), 2012).
About 6,400 (1.6%) of roughly 410,000 compounds were called active. The inconclusive results got no clear call from the source; some entries with a clear call stand among them for comparison. The call rests on the fitted dose curve; in most records, active means well fitted inhibition curve with a large enough effect; inconclusive means small, poorly fitted or top-dose-only effect; inactive means no such curve, though single readings can be large or run the other way. Potencies of inconclusive entries are left out as doubtful fits.

target: Glucagon-like peptide 1 receptor (Homo sapiens) (UniProt P43220); experiment: qHTS of GLP-1 Receptor Inverse Agonists (Inhibition Mode); settings: HEK293 GLP-1R CRE-luciferase, luminescence, 24 h, GLP-1R form is constitutively active; activity change, negative = inhibition: at 38.3 µM (top of the series) unless noted; further: nearly all actives have a fitted effect of over 55% in size
UniProt P43220, sequence (P43220 whole entry, looked up): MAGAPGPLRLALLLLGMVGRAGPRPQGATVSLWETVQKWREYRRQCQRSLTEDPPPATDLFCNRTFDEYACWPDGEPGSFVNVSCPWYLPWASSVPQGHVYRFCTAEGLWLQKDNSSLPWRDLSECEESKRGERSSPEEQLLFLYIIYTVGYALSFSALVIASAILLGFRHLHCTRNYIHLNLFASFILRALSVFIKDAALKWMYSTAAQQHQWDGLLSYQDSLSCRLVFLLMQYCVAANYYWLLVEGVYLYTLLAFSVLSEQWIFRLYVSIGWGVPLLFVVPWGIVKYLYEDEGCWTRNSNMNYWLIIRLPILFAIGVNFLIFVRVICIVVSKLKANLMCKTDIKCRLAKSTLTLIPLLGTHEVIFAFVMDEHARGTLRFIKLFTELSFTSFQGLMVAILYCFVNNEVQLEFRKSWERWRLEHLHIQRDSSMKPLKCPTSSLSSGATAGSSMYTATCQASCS
In short: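 qHTS in 1536-well format: reporter HEK293 cells expressing constitutive GLP-1R activity in DMEM + 10% Nu serum, 24 hr with compounds at 37 deg C, luminescence read after 12 min with detection reagent.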
On the % scale 0 is the no-effect control and ±100 the full control effect; potency means the concentration at half of the fitted maximal effect; tags describe the fitted curve by direction and shape.

Structure (SMILES) | Potency | activity change, negative = inhibition
COc1ccc(NC(=O)CCSc2ccc(C)cc2)cc1S(=O)(=O)Nc1ccccc1Cl | inconclusive [inhibitor, partial curve, poor fit] | 
O=C(NC1CCCC1)c1ccc(CS(=O)Cc2ccccc2Cl)o1 (stereo unspecified) |  | inactive: -0.51%
Cc1ccc(-c2noc(C3CCCN(C(=O)c4c(F)cccc4F)C3)n2)cc1 (stereo unspecified) |  | inactive: -5.89%
COC(=O)c1ccc(C2C=C(c3ccc(Cl)cc3)Nc3nc4ccccc4n32)cc1 (stereo unspecified) | inconclusive [inhibitor, single point] | 
COc1ccc(C)cc1NC(=O)Nc1cccc(C)c1 | inconclusive [inhibitor, single point] | 
Cn1ccc2cc(S(=O)(=O)N3CCCC(C(=O)NCc4ccc(F)cc4)C3)ccc21 (stereo unspecified) | inconclusive [inhibitor, partial curve] | 
Fc1cccc(Cl)c1/C=N/Nc1c(Cl)cncc1Cl | inconclusive [inhibitor, full curve] | 
O=C(c1cccs1)N1CCCC(c2nc(-c3ccc(F)cc3)no2)C1 (stereo unspecified) | inconclusive [inhibitor, single point] | 
CCOc1ccc(N=C2Sc3nc4ccc(C)cc4cc3CN2CCOC)cc1 | inconclusive [inhibitor, partial curve, poor fit] | 
O=C(Nc1ccccc1)c1ccccc1CSc1ccccc1 | inconclusive [inhibitor, single point] | 
CCOC(=O)N1CCC(N(CCN(C)C)C(=S)Nc2cccc(OC)c2)CC1 |  | inactive: 1.63%
CC(/C=N/NC(=O)c1cc(-c2ccccc2)nc2ccccc12)=C\c1ccco1 | inconclusive [inhibitor, full curve, poor fit] | 
CC(C)C1N(S(=O)(=O)c2ccccc2)CCN1S(=O)(=O)c1ccccc1 | inconclusive [inhibitor, partial curve, poor fit] | 
CCOc1ccc(NC(=S)NCc2ccc3c(c2)OCO3)cc1 | inconclusive [inhibitor, single point] | 
COc1ccc(C(=O)CSc2nnc(CN3CCCC3)n2-c2ccc(F)cc2)c(OC)c1 | inconclusive [inhibitor, single point] | 
CC1CN(C(=O)c2cccc(COc3ccc(Br)cc3)c2)CC(C)O1 (stereo unspecified) | inconclusive [inhibitor, single point] | 
O=C(C1CCN(Cc2ccccc2)CC1)N1CCN(C/C=C/c2ccccc2)CC1 | inconclusive [inhibitor, partial curve, poor fit] | 
CCOc1ccc(NC(=O)CC2C(=O)N(c3ccc(C)cc3)C(=O)N2C2CCCCC2)cc1 (stereo unspecified) | inconclusive [inhibitor, single point] | 
COc1ccc(/C=N\NC(=O)c2ccccc2OC)cc1COc1c(F)c(F)c(F)c(F)c1F | inconclusive [inhibitor, single point] | 
CC(C)(C)n1ncc2c(=O)n(CC(=O)Nc3ccc(Cl)cc3)cnc21 | inconclusive [inhibitor, single point] | 
O=C1N=C(N2CCOCC2)SC1=Cc1ccco1 |  | inactive: 0.0016%

Structure (SMILES) | Potency | activity change, negative = inhibition
COc1cnc(-c2ccccc2)nc1Oc1cccc(C)c1 | inconclusive [inhibitor, single point] | 
CCCCCCN1C[C@@H](O)[C@H](n2cc(COC(=O)c3ccccc3)nn2)C[C@@H]1c1ccc(Cl)cc1 |  | inactive: -10.5%
COc1ccc(/C=C(/C#N)c2nc(-c3cc4ccccc4oc3=O)cs2)cc1 |  | inactive: 0.579%
CN(C)S(=O)(=O)c1ccc(N2CCCC2)c(C(=O)NCc2ccc(Cl)cc2)c1 | inconclusive [inhibitor, partial curve, poor fit] | 
CN1CCN(c2ccc(CNC(=O)C3(C)Cc4c(-c5ccc6c(c5)OCO6)ccnc4O3)cc2)CC1 (stereo unspecified) |  | inactive: -14.9%
Cc1ccc(Cl)c(OCC(=O)Nc2cc(S(=O)(=O)N3CCOCC3)ccc2N2CCCC2)c1 | inconclusive [inhibitor, single point] | 
O=C1CC(N2CCN(c3ccccc3)CC2)C(=O)N1Cc1ccc(Cl)cc1 (stereo unspecified) | inconclusive [inhibitor, single point] | 
COc1ccc(/C=N/N2C(C)CCCC2C)cc1O (stereo unspecified) |  | inactive: 5.42%
COc1cc2[nH]c(=S)nc(NCc3ccccc3)c2cc1OC |  | inactive: 19.9%
O=C(CSc1nnc(CNC(=O)C23CC4CC(CC(C4)C2)C3)n1-c1ccc(F)cc1)Nc1ccc(F)cc1 | inconclusive [inhibitor, single point] | 
CN(C)S(=O)(=O)c1ccc(C(=O)NCCN2C(=O)S/C(=C\c3cccnc3)C2=O)cc1 |  | inactive: -1.56%
C[C@@H]1CCCCO[C@@H](CN(C)Cc2ccc3c(c2)OCO3)[C@@H](C)CN([C@H](C)CO)C(=O)c2cc(NS(=O)(=O)c3ccccc3)ccc2O1 | inconclusive [inhibitor, single point] | 
Cc1ccc(S(=O)(=O)NC2CC(C)(C)NC(C)(C)C2)cc1C | inconclusive [inhibitor, single point] | 
Cc1ccc(C(C)c2c(C)c([N+](=O)[O-])cc(C)c2[N+](=O)[O-])cn1 (stereo unspecified) | inconclusive [inhibitor, single point] | 
O=C(Nc1ccc(Cn2cccn2)cc1)c1ccc(COc2ccccc2Br)cc1 | inconclusive [inhibitor, full curve, poor fit] | 
C=CCn1c(CNc2ccc(C)cc2)nnc1SCC(=O)N/N=C/c1ccc(O)cc1O | inconclusive [inhibitor, partial curve, poor fit] | 
COC(=O)c1ccc(NC(=O)COc2ccc(N(C)S(=O)(=O)c3ccc(C)cc3)cc2)cc1 | inconclusive [inhibitor, partial curve, poor fit] | 
CC(C)CCCC(C)NC(=O)c1cc(S(=O)(=O)N2CCCCC2)ccc1N1CCOCC1 (stereo unspecified) | inconclusive [inhibitor, single point] | 
CC1(Oc2ccc(Cl)cc2)CCN(Cc2ccc(OC(F)(F)F)cc2)C1 (stereo unspecified) |  | inactive: -17.8%
COc1ccc(S(=O)(=O)N(CC(=O)Nc2ccc(OC)cc2OC)c2ccc(Cl)cc2)cc1 | inconclusive [inhibitor, single point] | 
COc1cc(NC(=O)C2CCN(S(=O)(=O)c3c(C)noc3/C=C/c3cccs3)CC2)cc(OC)c1 | inconclusive [inhibitor, partial curve, poor fit] | 

Structure (SMILES) | Potency | activity change, negative = inhibition
COc1ccc(-n2ncc(S(=O)(=O)c3ccccc3)c2-c2ccc(Cl)cc2)cc1 | inconclusive [inhibitor, single point] | 
c1ccc(CSc2nnc(-c3ccccn3)n2-c2ccccc2)cc1 | inconclusive [inhibitor, single point] | 
COc1ccc(N2CCN(c3ccc(N4C(=O)CC(C)C4=O)cc3[N+](=O)[O-])CC2)cc1 (stereo unspecified) |  | inactive: -41.7%
Cc1ccc2c(CN(C)Cc3cccc(F)c3)cc(=O)oc2c1C | inconclusive [inhibitor, partial curve, poor fit] | 
Cc1cccc(NC(=O)[C@H](C)NC(=O)[C@@H]2Cc3ccccc3CN2C(=O)OC(C)(C)C)c1 | inconclusive [inhibitor, single point] | 
Cc1ccc(C(=O)NC(=S)Nc2ccccc2C(F)(F)F)cc1 | inconclusive [inhibitor, partial curve] | 
COc1ccc(NC(=O)CC2C(=O)N(c3ccccc3)C(=O)N2CCC2=CCCCC2)cc1 (stereo unspecified) | inconclusive [inhibitor, single point] | 
S=C(NC1CCCCC1)N1CCN(Cc2ccccc2Cl)CC1 | inconclusive [inhibitor, partial curve, poor fit] | 
Cc1cccc(N2CCN(C(=O)COc3ccc4c(c3)CCC4)CC2)c1C | inconclusive [inhibitor, partial curve, poor fit] | 
COc1ccc(C(NC(=O)C2CCN(C/C=C/c3ccc(OC(C)=O)c(OC)c3)CC2)c2ccccn2)cc1 (stereo unspecified) | inconclusive [inhibitor, partial curve, poor fit] | 
O=C(Nc1sc2c(c1C(=O)O)CCCCC2)c1ccccc1 | inconclusive [inhibitor, partial curve, poor fit] | 
O=[N+]([O-])c1cccc(CON=Cc2cc(Cl)ccc2O)c1 | inconclusive [inhibitor, single point] | 
CCOc1ccccc1NC(=O)CC(c1ccc(F)cc1)N1Cc2ccccc2C1=O (stereo unspecified) | inconclusive [inhibitor, partial curve, poor fit] | 
Cc1ccc(-c2cc(C(=O)OCC(=O)c3ccccc3)c3cccc(Cl)c3n2)cc1 |  | inactive: -1.89%
Cc1cc(C)n(-c2ccc(C(=O)OCc3nnc(-c4ccccc4)o3)cc2)n1 |  | inactive: 16.6%
Cc1ccc(C)c(NC(=O)C(Sc2nc3ccccc3c(=O)n2CC(C)C)c2ccccc2)c1 (stereo unspecified) | inconclusive [inhibitor, partial curve, poor fit] | 
O=C(OCc1ccco1)c1ccc2c(c1)N(Cc1cccc(F)c1)C(=O)c1ccccc1S2 | inconclusive [inhibitor, single point] | 
CCC(C(=O)N1CCN(C(=O)c2ccco2)CC1)n1sc2ccccc2c1=O (stereo unspecified) | inconclusive [inhibitor, partial curve, poor fit] | 
COc1ccc(NC(=O)c2c(-c3c(Cl)cccc3Cl)noc2C)cn1 | inconclusive [inhibitor, partial curve, poor fit] | 
